The record followed here is PubChem BioAssay AID555 (SRMLSC, 2006).

Some of the results follow. These are further read-outs of the screen, such as a control signal, another cell line or another target. No call is given for them. Compounds called inactive in the main read-out are mostly missing here.

This test has as its system mevalonate kinase [Streptococcus pneumoniae D39]. The experiment in a line: pneumococcal mevalonate kinase activity blockers – biochemical, PK/LDH-coupled NADH absorbance, primary screen (AID 555). The note with it: purified MK, PK/LDH-coupled NADH absorbance 340 nm; measured here: pilot screen replicates; at 10 µM; stronger effect = higher value.
Molecule `CCOc1ccc2c(c1)c1nnc(SCC(=O)N3CCC(C)CC3)nc1n2C` registered an inhibition of 0%. For `O=S(=O)(c1ccc(F)cc1)N1CCC(N2CCCC2)CC1`, the inhibition is 2.5%.

`CCOC(=O)N1CCN(C(=O)CN(Cc2ccccc2)S(=O)(=O)c2ccc(OC)c(C)c2)CC1` had an inhibition of 10.5%. `CCOc1cccc(OCCOCCN2CCCC2)c1`: the inhibition came to 0%.

Turning to `COc1cccc(N2CCN(Cc3cccnc3)CC2)c1`, the inhibition was found to be 1.5%. To `C=CCn1cnc2c(NCc3ccccc3)ncnc21` belongs 12%. To `Cn1cccc1Cc1nnc(SCC(=O)NCc2ccc(F)cc2)n1-c1ccc(F)cc1` belongs 45.5%; to `CCOC(=O)C1CCN(Cc2ccc(OC)c(C)c2OC)CC1`, 3%; to `COc1c(Br)cc2c(C)c(C(=O)O)oc2c1Br`, 0%.

`CCN(CC)C(=O)C1CCCN(Cc2ccc(N(C)C)cc2)C1` (stereo not given): the inhibition was determined as 3.5%. To `CCC(=O)Nc1ccc(NC(=O)c2ccccn2)cn1` belongs 15.5%; to `O=C(C(c1ccccc1)c1ccccc1)N1CCN(Cc2ccccn2)CC1`, 1%; to `COc1cc(NC(=O)c2cc(CC(C)C)on2)c(OC)cc1Cl`, 9%. In turn, `Clc1ccc(SCCn2ccnc2)cc1` displayed an inhibition of 0%. To `CN(C)c1ccc(CNCCC2(O)CCOC(C)(C)C2)cc1` (stereo not given) belongs 3%.

In the case of `CCOc1cc(CN2CCN(C(=O)c3ccco3)CC2)ccc1OC`, the inhibition stood at 0.5%. To `COc1cccc(CN2CCN(C(=O)CC(C)C)CC2)c1` belongs 0.5%; to `CCOC(=O)C1CCN(Cc2ccc(C(=O)OC)cc2)CC1`, 0%. The value for `Cc1ccc(CNC(=O)C2CCN(S(=O)(=O)c3c(C)noc3C)CC2)cc1` was 10.5%; that for `COc1cc(C2c3c(n[nH]c3C)C(=O)N2c2ccc(C)cc2)ccc1O` (stereo not given) was 88%.

Turning to `FC(F)(F)c1cccc(N2CCN(Cc3cccnc3)CC2)c1`, the inhibition stood at 3.5%.

Regarding `CCc1ccc(CN(C)CCc2ccccn2)cc1`, the inhibition came to 0%. To `CCOC(=O)C1CCN(Cc2ccc(F)c(Br)c2)CC1` belongs 0%; to `CCOc1ccccc1OCCCCN1CCCC1`, 3%. As for `CN1CCN(c2nc3c(c(=O)n(C)c(=O)n3C)n2Cc2cccc3ccccc23)CC1`, the inhibition was determined as 16%. The value for `CC1=NN(c2ccccc2)C(=O)C1` was 0%.

For the molecule `COc1ccccc1C(=O)NCCc1nc2ccccc2n1C`, the inhibition was 46%.

`CCc1ccccc1OCCCCN1CCCC1` yielded an inhibition of 0%.

In the case of `Cc1cccc(NC(=O)c2cnc3sccn3c2=O)n1`, the inhibition turned out to be 14.5%. To `Oc1ccc(-c2n[nH]c(=S)n2Cc2ccccc2)cc1` belongs 12.5%; to `COc1ccc(C)cc1NCc1cccc(OC)c1OC`, 1%. As for `COc1ccc(-c2nc(C#N)c(N3CCOCC3)o2)cc1OC`, the inhibition stood at 23.5%. Molecule `COc1ccc(CN2C(=O)c3cccnc3C2Nc2cc(Cl)ccc2OC)cc1` (stereo not given) had an inhibition of 44.5%. The value for `C=CCc1ccccc1OCCCCN1CCCC1` was 0%. `Cc1nn(-c2ccccc2)c2c1C(O)n1c(nc3ccccc31)S2` (stereo not given) yielded an inhibition of 20.5%.

As usually defined, the inhibition is how much of the control response was suppressed.
